Experimental findings from US11891445 (ABL BIO, dated 2024) are described below.

Assay [1] has as its target T1, human B7-H3 expressed on a cell surface (human cancer cell lines) (human, UniProt Q5ZPR3 29-534).
T1 construct: whole, on cells; also called cell surface expression B7-H3 antigen
T1 sequence (looked up): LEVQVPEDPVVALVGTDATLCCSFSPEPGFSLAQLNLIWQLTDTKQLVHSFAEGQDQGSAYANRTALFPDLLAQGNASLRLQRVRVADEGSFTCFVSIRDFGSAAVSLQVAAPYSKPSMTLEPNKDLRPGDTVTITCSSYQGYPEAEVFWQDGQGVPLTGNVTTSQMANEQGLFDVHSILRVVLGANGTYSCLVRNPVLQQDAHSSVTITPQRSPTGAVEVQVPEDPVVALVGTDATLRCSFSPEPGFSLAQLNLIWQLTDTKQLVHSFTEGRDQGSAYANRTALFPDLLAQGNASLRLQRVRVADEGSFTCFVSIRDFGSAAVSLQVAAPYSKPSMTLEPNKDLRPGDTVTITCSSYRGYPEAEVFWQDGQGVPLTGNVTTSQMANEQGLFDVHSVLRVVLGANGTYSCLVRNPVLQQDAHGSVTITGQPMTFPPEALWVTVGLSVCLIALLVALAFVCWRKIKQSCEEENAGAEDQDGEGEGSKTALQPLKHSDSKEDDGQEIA
Nature of the assay: flow cytometry, Calu-6 cells, antibody 10 ug/ml. From the text:
(§1) Using various kinds of cancer cells A2780 (human ovarian cancer, ECACC, 93112519), SKOV-3 (human ovarian adenocarcinoma, ATCC® HTB-77™) OVCAR-3 (human ovarian adenocarcinoma, ATCC® HTB-161™), HCT116 (colon cancer cell, ThermoFIshcer Sci), HT29 (olorectal adenocarcinoma, ATCC® HTB-38™), DLD-1 (colorectal adenocarcinoma cell lines, ATCC® CCL-221™), Calu-6 (Non-small-cell lung carcinoma, ATCC® HTB-56™), HCC1954 (TNM stage IIA, grade 3, ductal carcinoma, ATCC® CRL-2338™), HCC1187 (TNM stage IIA, ATCC® CLC-2322™), renal cancer cell line 786-0 (renal cell adenocarcinoma, ATCC® CRL-1932™), A498 (kidney carcinoma, ATCC® HTB-44™), Panc-1 (pancreas epithelioid carcinoma, TCC CRL-1469™), NCI-N87 (gastric carcinoma, TCC CRL-5822™), HeLa (cervix adenocarcinoma, ATCC® CCL-2™), JeKo-1 (Lymphoma, ATCC® CRL-3006™) and FACSCalibur (BD Biosciences) device, the degree of binding of anti-B7-H3 antibody to B7-H3 was measured as follows.
(§2) After dissociating each cell line and washing it with PBS buffer, the number of cells was counted and adjusted to 2×10^5 cells/200 µl PBS, and then was treated with 10 µg/ml of B7-H3 monoclonal antibodies prepared in Example 2. Reaction was allowed at 4° C. for 1 hr. After washing the reacted cells in PBS, the FITC-labeled constant region (Fc)-specific antibody (Goat anti-human IgG FITC conjugate, Fc specific, Sigma, F9512, concentration: 2.0 mg/ml)) was diluted by 1:500 and added 100 µl per well. and Reaction was allowed at 4° C. for 1 hr. After the reaction, cells were washed in PBS and analyzed using the FACSCalibur device. The negative control group was treated by the FITC-labeled constant region (Fc) specific antibody only. To compare expression degrees of B7-H3 among different cancer cell lines, the value for the peak shift in the experimental groups treated with the B7-H3 monoclonal antibody was divided by the value for the peak shift in the negative control group (MFI Ratio, Mean Fluorescence Intensity Ratio).
(A flow cytometer gives signals particle by particle.)

Assay [2] addresses T1, human B7-H3 expressed on a cell surface …. Briefly: flow cytometry, HCT116 cells, antibody 10 ug/ml.
Source text: as §1, §2

B1: anti-B7-H3 antibody D8G (full IgG form) (antibody)
heavy: EVQLLESGGGLVQPGGSLRLSCAASGFTFSSYSMSWVRQAPGKGLEWVSGIYSDGSNTYYADSVKGRFTISRDNSKNTLYLQMNSLRAEDTAVYYCAKMLHRFDYWGQGTLVTVSS[human IgG1 constant region not shown]
light: QSVLTQPPSASGTPGQRVTISCSGSSSNIGSNSVTWYQQLPGTAPKLLIYADSQRPSGVPDRFSGSKSGTSASLAISGLRSEDEADYYCGTWDSSLNAYVFGGGTKLTVLGQPKAAPSVTLFPPSSEELQANKATLVCLISDFYPGAVTVAWKADSSPVKAGVETTTPSKQSNNKYAASSYLSLTPEQWKSHRSYSCQVTHEGSTVEKTVAPAECS
Regarding B1, the “MFI Ratio” value in assay [1] came out at 43.2 ratio; in assay [2], 7.9 ratio.

B2: anti-B7-H3 antibody B5 (full IgG form) (antibody)
heavy: EVQLLESGGGLVQPGGSLRLSCAASGFTFSDYAMSWVRQAPGKGLEWVSSISSGSGSIYYADSVKGRFTISRDNSKNTLYLQMNSLRAEDTAVYYCAKNLIPLDYWGQGTLVTVSS[human IgG1 constant region not shown]
light: QSVLTQPPSASGTPGQRVTISCSGSSSNIGSNAVSWYQQLPGTAPKLLIYYNSHRPSGVPDRFSGSKSGTSASLAISGLRSEDEADYYCGSWDASLNAYVFGGGTKLTVLGQPKAAPSVTLFPPSSEELQANKATLVCLISDFYPGAVTVAWKADSSPVKAGVETTTPSKQSNNKYAASSYLSLTPEQWKSHRSYSCQVTHEGSTVEKTVAPAECS
In the case of B2, the “MFI Ratio” value was determined as 47.9 ratio in assay [1] and 11.9 ratio in assay [2].

B3: anti-B7-H3 antibody C4I (full IgG form) (antibody)
heavy: EVQLLESGGGLVQPGGSLRLSCAASGFTFSGYYMSWVRQAPGKGLEWVSLISPSSGSIYYADSVKGRFTISRDNSKNTLYLQMNSLRAEDTAVYYCAKGLTKFDYWGQGTLVTVSS[human IgG1 constant region not shown]
light: QSVLTQPPSASGTPGQRVTISCTGSSSNIGSNDVSWYQQLPGTAPKLLIYANSHRPSGVPDRFSGSKSGTSASLAISGLRSEDEADYYCGSWDDSLSGYVFGGGTKLTVLGQPKAAPSVTLFPPSSEELQANKATLVCLISDFYPGAVTVAWKADSSPVKAGVETTTPSKQSNNKYAASSYLSLTPEQWKSHRSYSCQVTHEGSTVEKTVAPAECS
notes: also called C41
As to B3, the “MFI Ratio” value in assay [1] was found to be 45.5 ratio; in assay [2], 6.8 ratio.

B4: anti-B7-H3 antibody F6V (full IgG form) (antibody)
heavy: EVQLLESGGGLVQPGGSLRLSCAASGFTFSDYAMSWVRQAPGKGLEWVSGISPGGSNTYYADSVKGRFTISRDNSKNTLYLQMNSLRAEDTAVYYCAKDAWIARLLLFDYWGQGTLVTVSS[human IgG1 constant region not shown]
light: QSVLTQPPSASGTPGQRVTISCSGSSSNIGSNAVTWYQQLPGTAPKLLIYYNNKRPSGVPDRFSGSKSGTSASLAISGLRSEDEADYYCGTWDDSLSGYVFGGGTKLTVLGQPKAAPSVTLFPPSSEELQANKATLVCLISDFYPGAVTVAWKADSSPVKAGVETTTPSKQSNNKYAASSYLSLTPEQWKSHRSYSCQVTHEGSTVEKTVAPAECS
As to B4, in assay [2], the “MFI Ratio” value amounted to 10.8 ratio.

B5: anti-B7-H3 antibody 10F11 (full IgG form) (antibody)
heavy: EVQLLESGGGLVQPGGSLRLSCAASGFTFSSYGMSWVRQAPGKGLEWVSGIYSGGSSKYYADSVKGRFTISRDNSKNTLYLQMNSLRAEDTAVYYCAKNRLRFDYWGQGTLVTVSS[human IgG1 constant region not shown]
light: QSVLTQPPSASGTPGQRVTISCTGSSSNIGSNSVTWYQQLPGTAPKLLIYSDSHRPSGVPDRFSGSKSGTSASLAISGLRSEDEADYYCGTWDASLNAYVFGGGTKLTVLGQPKAAPSVTLFPPSSEELQANKATLVCLISDFYPGAVTVAWKADSSPVKAGVETTTPSKQSNNKYAASSYLSLTPEQWKSHRSYSCQVTHEGSTVEKTVAPAECS
Regarding B5, the “MFI Ratio” value in assay [1] came to 47.8 ratio; in assay [2] it was 12 ratio.
